Test results published in a collection of fitness landscapes (doi:10.1038/s41467-024-54723-y).
Over roughly 18,000 sequences, “TetR repression strength (sort-seq, GFP reporter)” has its median near 0.23; the highest 2% begin near 0.68. The list shows a part of the results.

Biological target: TetR (class B, Tn10) (UniProt P04483)
Test: TetR repression strength (sort-seq, GFP reporter) (relative to tetO2 = 1); higher = stronger repression
Settings: E. coli
Method in brief: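 In LB with 50 µg/mL chloramphenicol, E. coli SIG10-MAX holding a low-copy library with eight randomized operator positions between a constitutive promoter and sfGFP, plus constitutive TetR, grew for 5 h at 37 °C. FACS then sorted 10^6 cells into 13 fluorescence bins for Illumina sequencing of each bin. Repression strength equals the top bin index plus one less the read-weighted mean bin, normalized to the unaltered operator. Values from three independent transformations were averaged when reads were ≥30 in every replicate and the CV was ≤0.5.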

Sequence of UniProt P04483 (P04483 whole entry): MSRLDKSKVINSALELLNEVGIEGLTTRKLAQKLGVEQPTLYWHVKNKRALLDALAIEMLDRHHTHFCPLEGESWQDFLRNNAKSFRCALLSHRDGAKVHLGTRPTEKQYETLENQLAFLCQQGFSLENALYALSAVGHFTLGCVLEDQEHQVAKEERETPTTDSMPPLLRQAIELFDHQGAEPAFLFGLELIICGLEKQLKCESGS

Row | Sequence | TetR repression strength
1 | TCCCGGCGAGTGTAAGAGA | 0.654
2 | TCCCGATCAGTCAAGGAGA | 0.375
3 | TCCCCATCAGTGATAGAGA | 0.966
4 | TCCCGCGAAGTCGGGGAGA | 0.448
5 | TCCCTATGAGTGGGTGAGA | 0.136
6 | TCCCATTTAGTCGACGAGA | 0.538
7 | TCCCGGATAGTTCTAGAGA | 0.278
8 | TCCCATCGAGTGCGAGAGA | 0.0889
9 | TCCCAAGGAGTCTTAGAGA | 0.475
10 | TCCCTCTGAGTAGTAGAGA | 0.144
11 | TCCCGAAAAGTGCGAGAGA | 0.242
12 | TCCCAGCAAGTATGGGAGA | 0.71
13 | TCCCATCTAGTCTGGGAGA | 0.254
14 | TCCCTTAGAGTCAATGAGA | 0.269
15 | TCCCCAACAGTTCGGGAGA | 0.0137
16 | TCCCTTTGAGTTATGGAGA | 0.325
17 | TCCCAGCCAGTTAGGGAGA | 0.204
18 | TCCCTGCCAGTAGTAGAGA | 0.27
19 | TCCCCACGAGTGCTCGAGA | 0.156
20 | TCCCCGGCAGTGGGTGAGA | 0.0895
21 | TCCCTCCTAGTATGAGAGA | 0.28
22 | TCCCTTTCAGTTTTGGAGA | 0.151
23 | TCCCGATGAGTTTGGGAGA | 0.199
24 | TCCCACTCAGTGCGCGAGA | 0.0918
25 | TCCCACCTAGTAGGTGAGA | 0.222
26 | TCCCGAGTAGTTTGAGAGA | 0.211

Row | Sequence | TetR repression strength
27 | TCCCGCTAAGTACCGGAGA | 0.158
28 | TCCCGATGAGTAGACGAGA | 0.0926
29 | TCCCGACAAGTGCAGGAGA | 0.684
30 | TCCCAGCAAGTTCTGGAGA | 0.0363
31 | TCCCGCCCAGTATTTGAGA | 0.311
32 | TCCCCGACAGTAGGGGAGA | 0.0926
33 | TCCCTACCAGTGTGGGAGA | 0.327
34 | TCCCACGGAGTGCGGGAGA | 0.24
35 | TCCCTGTCAGTAGGCGAGA | 0.38
36 | TCCCTTCTAGTTACAGAGA | 0.558
37 | TCCCAGCAAGTGTGTGAGA | 0.1
38 | TCCCTTAAAGTACCAGAGA | 0.166
39 | TCCCTCAGAGTAGGTGAGA | 0.0581
40 | TCCCATATAGTGTAAGAGA | 0.359
41 | TCCCAGTGAGTCTTGGAGA | 0.214
42 | TCCCCGGTAGTCGTTGAGA | 0.192
43 | TCCCACCAAGTGATCGAGA | 0.314
44 | TCCCTGGGAGTATAGGAGA | 0.273
45 | TCCCTAGTAGTGTGAGAGA | 0.119
46 | TCCCTTCTAGTTTCAGAGA | 0.401
47 | TCCCAAGAAGTCGGCGAGA | 0.0931
48 | TCCCGACTAGTCTTGGAGA | 0.338
49 | TCCCAGACAGTGTGAGAGA | 0.418
50 | TCCCGCGGAGTGCGGGAGA | 0.369
51 | TCCCCAAGAGTTATAGAGA | 0.281
52 | TCCCCCTAAGTCTGTGAGA | 0.104

Row | Sequence | TetR repression strength
53 | TCCCCTCTAGTATTCGAGA | 0.39
54 | TCCCGGGCAGTACCGGAGA | 0.328
55 | TCCCAGGCAGTCCGGGAGA | 0.0518
56 | TCCCGATCAGTTGGAGAGA | 0.198
57 | TCCCCTGTAGTGAGGGAGA | 0.087
58 | TCCCTCATAGTCCCTGAGA | 0.235
59 | TCCCATGCAGTAGGTGAGA | 0.194
60 | TCCCCTGGAGTACGAGAGA | 0.207
61 | TCCCTGCGAGTCCACGAGA | 0.204
62 | TCCCAAGTAGTGATTGAGA | 0.36
63 | TCCCGTGAAGTGGTAGAGA | 0.348
64 | TCCCTCTTAGTTAACGAGA | 0.322
65 | TCCCGTCTAGTGACCGAGA | 0.0797
66 | TCCCCTTCAGTAGTAGAGA | 0.25
67 | TCCCCACAAGTGTTGGAGA | 0.173
68 | TCCCTATCAGTTACGGAGA | 0.484
69 | TCCCGGCTAGTTCTGGAGA | 0.207
70 | TCCCGTAAAGTTCATGAGA | 1.21
71 | TCCCTGCCAGTTCCTGAGA | 0.201
72 | TCCCGGACAGTGAGAGAGA | 0.246
73 | TCCCGAGAAGTATACGAGA | 0.145
74 | TCCCGGTTAGTATGCGAGA | 0.19
75 | TCCCGTCCAGTTGTGGAGA | 0.514
76 | TCCCGGACAGTAGACGAGA | 0.25
77 | TCCCCGGCAGTGAAAGAGA | 0.324
78 | TCCCGAAGAGTTTAAGAGA | 0.292

Row | Sequence | TetR repression strength
79 | TCCCAATCAGTGGATGAGA | 0.284
80 | TCCCCACAAGTGATGGAGA | 0.152
81 | TCCCTTAGAGTGTCGGAGA | 0.182
82 | TCCCTATCAGTGCCGGAGA | 1.06
83 | TCCCCTTTAGTGGTTGAGA | 0.273
84 | TCCCAAACAGTTATGGAGA | 0.203
85 | TCCCTTGGAGTAACAGAGA | 0
86 | TCCCACTGAGTTCAGGAGA | 0.104
87 | TCCCGTCGAGTTATAGAGA | 0.254
88 | TCCCAAGTAGTTAAGGAGA | 0.0695
89 | TCCCGCGCAGTACGGGAGA | 0.17
90 | TCCCCACGAGTAAGAGAGA | 0.215
91 | TCCCCAAAAGTTTGTGAGA | 0.0341
92 | TCCCATTGAGTTGACGAGA | 0.0759
93 | TCCCAAGAAGTCCTGGAGA | 0.226
94 | TCCCGGATAGTTGCCGAGA | 0
95 | TCCCCAAGAGTGATAGAGA | 0.456
96 | TCCCGACTAGTGCTCGAGA | 0.0234
97 | TCCCTCAGAGTATTTGAGA | 0.462
98 | TCCCTGGCAGTGATGGAGA | 0.189
99 | TCCCAATCAGTTACGGAGA | 0.404
100 | TCCCTTTTAGTAAGGGAGA | 0.112
101 | TCCCGTAGAGTCCGTGAGA | 0.202
102 | TCCCGTGGAGTCCGGGAGA | 0.158
